# Reference: the supplement of paper PMC8728848
# This is one part of the list.
# B1: MUC1-SEA-mFcIgG2a (Homo sapiens), P15941 (SEA domain only) (protein)
# chain: DAAQPARRAVRSSSELTSEQKLISEEDLSRLVHNGTSARATTTPASKSTPFSIPSHHSDTPTTLASHSTKTDASSTHHSTVPPLTSSNHSTSPQLSTGVSFFFLSFHISNLQFNSSLEDPSTDYYQELQRDISEMFLQIYKQGGFLGLSNIKFRPGSVVVQLTLAFREGTINVHDVETQFNQYKTEAASRYNLTISDASVSDVPFPFSAQSGSDDDDKALEPRGPTIKPCPPCKCPAPNLLGGPSVFIFPPKIKDVLMISLSPIVTCVVVDVSEDDPDVQISWFVNNVEVHTAQTQTHREDYNSTLRVVSALPIQHQDWMSGKEFKCKVNNKDLPAPIERTISKPKGSVRAPQVYVLPPPEEEMTKKQVTLTCMVTDFMPEDIYVEWTNNGKTELNYKNTEPVLDSDGSYFMYSKLRVEKKNWVERNSYSCSVVHEGLHNHHTTKSFSRTPGKHHHHH
# Assays:
# Assay in all cases: glycan array binding signal (z-score within array); higher = stronger binding
# Conditions in all cases: glycan notation: IUPAC condensed, linker removed
# [1] = biological target: Man(a1-3)[Man(a1-6)]Man(a1-6)[Man(a1-2)Man(a1-3)]Man(b1-4)GlcNAc(b1-4)GlcNAc
# Summary of the method: (§1)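 Glycan array data were curated from 3228 arrays in the Consortium for Functional Glycomics database and kept only where the protein sequence was available. Glycan names were converted to IUPAC-condensed notation, and columns mapping to the same glycan were averaged. The binding signal is a within-array Z-score, averaged across arrays of the same protein sequence at different concentrations or buffers and across linkers. Negative Z-scores can be read as non-binding.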
# [2] = biological target: Man(a1-3)[Man(a1-6)]Man(a1-6)[Man(a1-3)]Man
# Summary of the method: as §1
# [3] = biological target: Man(a1-3)[Man(a1-6)]Man(a1-6)[Man(a1-3)]Man(b1-4)GlcNAc(b1-4)GlcNAc
# Summary of the method: as §1
# [4] = biological target: Man(a1-3)[Man(a1-6)]Man(b1-4)GlcNAc(b1-4)GlcNAc
# Summary of the method: as §1
# [5] = biological target: Man(a1-6)Man
# Summary of the method: as §1
# [6] = biological target: Man(b1-4)GlcNAc
# Summary of the method: as §1
# [7] = biological target: Neu5Ac(a2-3)Gal
# Summary of the method: as §1
# [8] = biological target: Neu5Ac(a2-3)Gal(b1-3)GalNAc
# Summary of the method: as §1
# [9] = biological target: Neu5Ac(a2-3)Gal(b1-3)GalNAc(b1-3)Gal(a1-4)Gal(b1-4)Glc
# Summary of the method: as §1
# [10] = biological target: Neu5Ac(a2-3)Gal(b1-3)GalNAc(b1-3)Gal(b1-4)GlcNAc
# Summary of the method: as §1
# [11] = biological target: Neu5Ac(a2-3)Gal(b1-3)GalNAc(b1-4)[Neu5Ac(a2-3)]Gal(b1-4)Glc
# Summary of the method: as §1
# [12] = biological target: Neu5Ac(a2-3)Gal(b1-3)GalNAc6S
# Summary of the method: as §1
# [13] = biological target: Neu5Ac(a2-3)Gal(b1-3)GlcNAc
# Summary of the method: as §1
# [14] = biological target: Neu5Ac(a2-3)Gal(b1-3)GlcNAc(b1-3)Gal(b1-3)GlcNAc
# Summary of the method: as §1
# [15] = biological target: Neu5Ac(a2-3)Gal(b1-3)GlcNAc6S
# Summary of the method: as §1
# [16] = biological target: Neu5Ac(a2-3)Gal(b1-3)[Fuc(a1-4)]GlcNAc
# Summary of the method: as §1
# [17] = biological target: Neu5Ac(a2-3)Gal(b1-3)[Fuc(a1-4)]GlcNAc(b1-3)Gal(b1-4)[Fuc(a1-3)]GlcNAc
# Summary of the method: as §1
# [18] = biological target: Neu5Ac(a2-3)Gal(b1-3)[Neu5Ac(a2-3)Gal(b1-4)]GlcNAc
# Summary of the method: as §1
# [19] = biological target: Neu5Ac(a2-3)Gal(b1-3)[Neu5Ac(a2-6)]GalNAc
# Summary of the method: as §1
# [20] = biological target: Neu5Ac(a2-3)Gal(b1-4)Glc
# Summary of the method: as §1
# [21] = biological target: Neu5Ac(a2-3)Gal(b1-4)GlcNAc
# Summary of the method: as §1
# [22] = biological target: Neu5Ac(a2-3)Gal(b1-4)GlcNAc(b1-2)Man(a1-3)[GlcNAc(b1-2)Man(b1-4)GlcNAc(b1-2)Man(a1-6)]Man(b1-4)GlcNAc(b1-4)GlcNAc
# Summary of the method: as §1
# [23] = biological target: Neu5Ac(a2-3)Gal(b1-4)GlcNAc(b1-2)Man(a1-3)[Neu5Ac(a2-6)Gal(b1-4)GlcNAc(b1-2)Man(a1-6)]Man(b1-4)GlcNAc(b1-4)GlcNAc
# Summary of the method: as §1
# [24] = biological target: Neu5Ac(a2-3)Gal(b1-4)GlcNAc(b1-3)Gal(b1-3)GlcNAc
# Summary of the method: as §1
# [25] = biological target: Neu5Ac(a2-3)Gal(b1-4)GlcNAc(b1-3)Gal(b1-4)GlcNAc
# Summary of the method: as §1
# [26] = biological target: Neu5Ac(a2-3)Gal(b1-4)GlcNAc(b1-3)Gal(b1-4)GlcNAc(b1-3)Gal(b1-4)GlcNAc
# Summary of the method: as §1
# [27] = biological target: Neu5Ac(a2-3)Gal(b1-4)GlcNAc(b1-3)Gal(b1-4)[Fuc(a1-3)]GlcNAc
# Summary of the method: as §1
# [28] = biological target: Neu5Ac(a2-3)Gal(b1-4)GlcNAc(b1-6)[Gal(b1-3)]GalNAc
# Summary of the method: as §1
# [29] = biological target: Neu5Ac(a2-3)Gal(b1-4)GlcNAc(b1-6)[Neu5Ac(a2-3)Gal(b1-3)]GalNAc
# Summary of the method: as §1
# [30] = biological target: Neu5Ac(a2-3)Gal(b1-4)GlcNAc6S
# Summary of the method: as §1
# [31] = biological target: Neu5Ac(a2-3)Gal(b1-4)[Fuc(a1-3)]GlcNAc
# Summary of the method: as §1
# [32] = biological target: Neu5Ac(a2-3)Gal(b1-4)[Fuc(a1-3)]GlcNAc(b1-3)Gal
# Summary of the method: as §1
# [33] = biological target: Neu5Ac(a2-3)Gal(b1-4)[Fuc(a1-3)]GlcNAc(b1-3)Gal(b1-4)GlcNAc
# Summary of the method: as §1
# [34] = biological target: Neu5Ac(a2-3)Gal(b1-4)[Fuc(a1-3)]GlcNAc(b1-3)Gal(b1-4)[Fuc(a1-3)]GlcNAc(b1-3)Gal(b1-4)[Fuc(a1-3)]GlcNAc
# Summary of the method: as §1
# [35] = biological target: Neu5Ac(a2-3)Gal(b1-4)[Fuc(a1-3)]GlcNAc(b1-6)[Gal(b1-3)]GalNAc
# Summary of the method: as §1
# [36] = biological target: Neu5Ac(a2-3)Gal(b1-4)[Fuc(a1-3)]GlcNAc6S
# Summary of the method: as §1
# [37] = biological target: Neu5Ac(a2-3)Gal6S(b1-4)GlcNAc
# Summary of the method: as §1
binder,measurement,setting,value
B1,glycan array binding signal (z-score),[1],0.067
same,glycan array binding signal (z-score),[2],-0.208
same,glycan array binding signal (z-score),[3],-0.048
same,glycan array binding signal (z-score),[4],-0.235
same,glycan array binding signal (z-score),[5],-0.113
same,glycan array binding signal (z-score),[6],-0.473
same,glycan array binding signal (z-score),[7],-0.415
same,glycan array binding signal (z-score),[8],0.559
same,glycan array binding signal (z-score),[9],-0.376
same,glycan array binding signal (z-score),[10],-0.254
same,glycan array binding signal (z-score),[11],-0.414
same,glycan array binding signal (z-score),[12],-0.282
same,glycan array binding signal (z-score),[13],-0.171
same,glycan array binding signal (z-score),[14],-0.152
same,glycan array binding signal (z-score),[15],0.15
same,glycan array binding signal (z-score),[16],-0.087
same,glycan array binding signal (z-score),[17],-0.296
same,glycan array binding signal (z-score),[18],-0.394
same,glycan array binding signal (z-score),[19],-0.256
same,glycan array binding signal (z-score),[20],-0.399
same,glycan array binding signal (z-score),[21],-0.157
same,glycan array binding signal (z-score),[22],0.15
same,glycan array binding signal (z-score),[23],-0.072
same,glycan array binding signal (z-score),[24],-0.42
same,glycan array binding signal (z-score),[25],-0.354
same,glycan array binding signal (z-score),[26],-0.118
same,glycan array binding signal (z-score),[27],0.606
same,glycan array binding signal (z-score),[28],-0.457
same,glycan array binding signal (z-score),[29],-0.378
same,glycan array binding signal (z-score),[30],-0.21
same,glycan array binding signal (z-score),[31],-0.382
same,glycan array binding signal (z-score),[32],-0.375
same,glycan array binding signal (z-score),[33],-0.381
same,glycan array binding signal (z-score),[34],-0.508
same,glycan array binding signal (z-score),[35],1.4
same,glycan array binding signal (z-score),[36],0.354
same,glycan array binding signal (z-score),[37],-0.055
